The values below come from PubChem BioAssay AID1851 (National Center for Advancing Translational Sciences (NCATS), 2009).

The list shows a part of the results, in another mix than the full data. Results filed as inconclusive are left out. Activity calls are given as the source filed them. The call rests on the fitted dose curve; in most records, active means well fitted curve in the direction sought with a large enough effect; inconclusive means small, poorly fitted or top-dose-only effect, or effect the other way; inactive means no such curve, though single readings can be large or run the other way.
On the % scale 0 is the no-effect control and ±100 the full control effect.

The assay deals with Cytochrome P450 3A4 (Homo sapiens) (UniProt P08684). The assay is described as follows: Cytochrome panel assay with activity outcomes. The following applies: recombinant CYP, pro-luciferin dealkylation, luminescence, p450-cyp3a4; series mostly up to 2.29 µM; activity, negative = inhibition: at the top concentration.
Chain of UniProt P08684 (P08684 whole entry, looked up): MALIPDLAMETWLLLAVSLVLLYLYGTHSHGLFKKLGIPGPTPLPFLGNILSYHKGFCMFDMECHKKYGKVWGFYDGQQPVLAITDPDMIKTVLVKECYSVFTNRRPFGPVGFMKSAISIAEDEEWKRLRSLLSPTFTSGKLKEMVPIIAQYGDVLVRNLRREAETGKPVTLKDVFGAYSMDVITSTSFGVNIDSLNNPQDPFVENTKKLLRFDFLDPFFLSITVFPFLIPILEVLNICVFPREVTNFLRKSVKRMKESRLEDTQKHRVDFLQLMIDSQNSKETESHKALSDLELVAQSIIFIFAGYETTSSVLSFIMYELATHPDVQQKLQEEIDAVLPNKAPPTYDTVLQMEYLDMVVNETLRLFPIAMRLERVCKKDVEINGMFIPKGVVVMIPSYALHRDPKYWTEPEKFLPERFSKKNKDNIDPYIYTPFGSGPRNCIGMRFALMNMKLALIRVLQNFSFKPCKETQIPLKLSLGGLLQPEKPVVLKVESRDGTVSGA
With `COC(=O)C1=C(C(=O)OC)C(c2cc(Cl)ccc2O)c2sc(=O)[nH]c2S1` (stereo not drawn), the AC50 (commonly the midpoint of the concentration-response curve, whichever way the signal moves) was active: 15.8 µM. As to `Cc1ccc(OCCNC(=O)/C=C/c2ccc([N+](=O)[O-])cc2)cc1C`, the “activity, negative = inhibition” value is inactive: -7.5%. With `Nc1ccc(Sc2ccccc2CC(=O)O)cc1`, the “activity, negative = inhibition” value was inactive: -5.28%. With `CCOc1cc(/C=N/n2cnnc2)ccc1OC(=O)c1cccc([N+](=O)[O-])c1`, the concentration at half-maximal activity (AC50) was active: 15.8 µM. As to `CCN(C(=O)CSc1nnc(Cc2cccc3ccccc23)n1N)C1CCS(=O)(=O)C1` (stereo not drawn), the half-maximal activity concentration (AC50) is active: 6.31 µM.

Take `O=S(=O)(c1ccccc1)N1CCN(S(=O)(=O)c2ccccc2)c2ccccc21`: the half-maximal activity concentration (AC50) is active: 3.98 µM.

For the compound `CC[C@](C)(CN(C)C)OC(=O)c1ccccc1`, the “activity, negative = inhibition” value is inactive: -6.4% [at 25.6 µM]. As for `COc1ccc(C2=NN(C)C(=NCc3ccccc3)SC2)cc1`, the “activity, negative = inhibition” value is inactive: 28.7% [at 57.1 µM].
